In the supplement of paper PMC8728848:
The list shows a part of the results.

What was measured:
Assay in all cases: glycan array binding signal (z-score within array); higher = stronger binding
Conditions in all cases: glycan notation: IUPAC condensed, linker removed; mutation: R349A
[1] = biological target: Fuc(a1-2)[GalNAc(a1-3)]Gal(b1-4)[Fuc(a1-3)]GlcNAc
Outline: (§1)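 Negative Z-scores can be read as non-binding. The Z-score is calculated within each array and then averaged across arrays of one protein sequence at different concentrations or buffers and across linkers. Arrays, 3228 in all, were curated from the Consortium for Functional Glycomics database and kept only where the protein sequence was available.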

[2] = biological target: Fuc(a1-2)[GalNAc(a1-4)]Gal(b1-4)GlcNAc
Outline: as §1

[3] = biological target: Fuc(a1-2)[GalNAc(b1-3)]Gal
Outline: as §1

Fuc(a1-3)GlcNAc = biological target: Fuc(a1-3)GlcNAc
Outline: as §1

[4] = biological target: Fuc(a1-3)[Gal(b1-4)]Glc6S
Outline: as §1

[5] = biological target: Fuc(a1-3)[Gal(b1-4)]GlcNAc
Outline: as §1

[6] = biological target: Fuc(a1-3)[Gal(b1-4)]GlcNAc(b1-2)Man(a1-3)[Fuc(a1-3)[Gal(b1-4)]GlcNAc(b1-2)Man(a1-6)]Man(b1-4)GlcNAc(b1-4)GlcNAc
Outline: as §1

[7] = biological target: Fuc(a1-3)[Gal(b1-4)]GlcNAc(b1-2)Man(a1-6)[Gal(b1-4)GlcNAc(b1-2)Man(a1-3)]Man(b1-4)GlcNAc(b1-4)GlcNAc
Outline: as §1

[8] = biological target: Fuc(a1-3)[Gal(b1-4)]GlcNAc(b1-3)Gal(b1-3)[Fuc(a1-4)]GlcNAc
Outline: as §1

[9] = biological target: Fuc(a1-3)[Gal(b1-4)]GlcNAc(b1-4)Gal(b1-4)[Fuc(a1-3)]GlcNAc
Outline: as §1

[10] = biological target: Fuc(a1-3)[Gal(b1-4)]GlcNAc(b1-4)Gal(b1-4)[Fuc(a1-3)]GlcNAc(b1-4)Gal(b1-4)[Fuc(a1-3)]GlcNAc
Outline: as §1

[11] = biological target: Fuc(a1-3)[Gal(b1-4)]GlcNAc6S
Outline: as §1

[12] = biological target: Fuc(a1-3)[Gal3S(b1-4)]Glc6S
Outline: as §1

[13] = biological target: Fuc(a1-3)[Gal3S(b1-4)]GlcNAc
Outline: as §1

[14] = biological target: Fuc(a1-3)[Gal3S(b1-4)]GlcNAc6S
Outline: as §1

[15] = biological target: Fuc(a1-3)[GalNAc(b1-4)]GlcNAc
Outline: as §1

Fuc(a1-4)GlcNAc = biological target: Fuc(a1-4)GlcNAc
Outline: as §1

Fuc(b1-3)GlcNAc = biological target: Fuc(b1-3)GlcNAc
Outline: as §1

Gal(a1-2)Gal = biological target: Gal(a1-2)Gal
Outline: as §1

Gal(a1-3)Gal = biological target: Gal(a1-3)Gal
Outline: as §1

Gal(a1-3)Gal(b1-3)GlcNAc = biological target: Gal(a1-3)Gal(b1-3)GlcNAc
Outline: as §1

Gal(a1-3)Gal(b1-4)Glc = biological target: Gal(a1-3)Gal(b1-4)Glc
Outline: as §1

Gal(a1-3)Gal(b1-4)GlcNAc = biological target: Gal(a1-3)Gal(b1-4)GlcNAc
Outline: as §1

[16] = biological target: Gal(a1-3)Gal(b1-4)[Fuc(a1-3)]GlcNAc
Outline: as §1

Gal(a1-3)GalNAc = biological target: Gal(a1-3)GalNAc
Outline: as §1

[17] = biological target: Gal(a1-3)[Gal(a1-4)]Gal(b1-4)GlcNAc
Outline: as §1

Gal(a1-4)Gal(b1-4)Glc = biological target: Gal(a1-4)Gal(b1-4)Glc
Outline: as §1

Gal(a1-4)Gal(b1-4)GlcNAc = biological target: Gal(a1-4)Gal(b1-4)GlcNAc
Outline: as §1

Gal(a1-4)GlcNAc = biological target: Gal(a1-4)GlcNAc
Outline: as §1

Gal(a1-6)Glc = biological target: Gal(a1-6)Glc
Outline: as §1

Gal(b1-2)Gal = biological target: Gal(b1-2)Gal
Outline: as §1

Gal(b1-3)Gal = biological target: Gal(b1-3)Gal
Outline: as §1

Gal(b1-3)Gal(b1-4)GlcNAc = biological target: Gal(b1-3)Gal(b1-4)GlcNAc
Outline: as §1

Gal(b1-3)GalNAc = biological target: Gal(b1-3)GalNAc
Outline: as §1

[18] = biological target: Gal(b1-3)GalNAc(b1-3)Gal(a1-4)Gal(b1-4)Glc
Outline: as §1

[19] = biological target: Gal(b1-3)GalNAc(b1-4)Gal(b1-4)Glc
Outline: as §1

[20] = biological target: Gal(b1-3)GalNAc(b1-4)[Neu5Ac(a2-3)]Gal(b1-4)Glc
Outline: as §1

Gal(b1-3)GlcNAc = biological target: Gal(b1-3)GlcNAc
Outline: as §1

[21] = biological target: Gal(b1-3)GlcNAc(b1-2)Man(a1-3)[Gal(b1-3)GlcNAc(b1-2)Man(a1-6)]Man(b1-4)GlcNAc(b1-4)GlcNAc
Outline: as §1

[22] = biological target: Gal(b1-3)GlcNAc(b1-3)Gal(b1-3)GlcNAc
Outline: as §1

[23] = biological target: Gal(b1-3)GlcNAc(b1-3)Gal(b1-4)Glc
Outline: as §1

[24] = biological target: Gal(b1-3)GlcNAc(b1-3)Gal(b1-4)GlcNAc
Outline: as §1

[25] = biological target: Gal(b1-3)[Fuc(a1-4)]GlcNAc
Outline: as §1

[26] = biological target: Gal(b1-3)[Fuc(a1-4)]GlcNAc(b1-3)Gal(b1-3)[Fuc(a1-4)]GlcNAc
Outline: as §1

[27] = biological target: Gal(b1-3)[Fuc(a1-4)]GlcNAc(b1-3)Gal(b1-4)GlcNAc
Outline: as §1

B1: Surfactant Protein D (Human); Neck + Carbohydrate Recognition Domain (NCRD) (Homo sapiens) (protein)
chain: MLLFLLSALVLLTQPLGYLEAEMKTYSHRTMPSACTLVMCSSVESGLPGRDRDGREGPRGEKGDPGLPGAAGQAGMPGQAGPVGPKGDNGSVGEPGPKGDTGPSGPPGPPGVPGPAGREGALGKQGNIGPQGKPGPKGEAGPKGEVGAPGMQGSAGARGLAGPKGERGVPGERGVPGNTGAAGSAGAMGPQGSPGARGPPGLKGDKGIPGDKGAKGESGLPDVASLRQQVEALQGQVQHLQAAFSQYKKVELFPNGQSVGEKIFKTAQFVKPFTEAQLLCTQAGGQLASPRSAAENAALQQLVVAKNEAAFLSMTDSKTEGKFTYPTGESLVYSNWAPGEPNDDGGSEDCVEIFTNGKWNDRACGEKALVVCEF
With B1 the “glycan array binding signal (z-score)” value [1] was -0.584, the “glycan array binding signal (z-score)” value [2] was -0.485 and the “glycan array binding signal (z-score)” value [3] was -0.782. For the same binder, the “glycan array binding signal (z-score)” value (Fuc(a1-3)GlcNAc) was -0.606, the “glycan array binding signal (z-score)” value [4] was 1.04 and the “glycan array binding signal (z-score)” value [5] was -0.25. For the same binder, the “glycan array binding signal (z-score)” value [6] was -0.494, the “glycan array binding signal (z-score)” value [7] was -0.569 and the “glycan array binding signal (z-score)” value [8] was -0.667. The “glycan array binding signal (z-score)” value [9] was -0.655, the “glycan array binding signal (z-score)” value [10] was -0.636 and the “glycan array binding signal (z-score)” value [11] was 1.97. The “glycan array binding signal (z-score)” value [12] was 1.93, the “glycan array binding signal (z-score)” value [13] was 0.887 and the “glycan array binding signal (z-score)” value [14] was 2.55. For the same binder, the “glycan array binding signal (z-score)” value [15] was -0.711, the “glycan array binding signal (z-score)” value (Fuc(a1-4)GlcNAc) was -0.024 and the “glycan array binding signal (z-score)” value (Fuc(b1-3)GlcNAc) was -0.301. The “glycan array binding signal (z-score)” value (Gal(a1-2)Gal) was -0.249, the “glycan array binding signal (z-score)” value (Gal(a1-3)Gal) was -0.669 and the “glycan array binding signal (z-score)” value (Gal(a1-3)Gal(b1-3)GlcNAc) was -0.301. The “glycan array binding signal (z-score)” value (Gal(a1-3)Gal(b1-4)Glc) was -0.543, the “glycan array binding signal (z-score)” value (Gal(a1-3)Gal(b1-4)GlcNAc) was -0.728 and the “glycan array binding signal (z-score)” value [16] was -0.759. For the same binder, the “glycan array binding signal (z-score)” value (Gal(a1-3)GalNAc) was -0.834, the “glycan array binding signal (z-score)” value [17] was -0.857 and the “glycan array binding signal (z-score)” value (Gal(a1-4)Gal(b1-4)Glc) was -0.284. The “glycan array binding signal (z-score)” value (Gal(a1-4)Gal(b1-4)GlcNAc) was -0.293, the “glycan array binding signal (z-score)” value (Gal(a1-4)GlcNAc) was -0.242 and the “glycan array binding signal (z-score)” value (Gal(a1-6)Glc) was -0.467. For the same binder, the “glycan array binding signal (z-score)” value (Gal(b1-2)Gal) was -0.684, the “glycan array binding signal (z-score)” value (Gal(b1-3)Gal) was -0.335 and the “glycan array binding signal (z-score)” value (Gal(b1-3)Gal(b1-4)GlcNAc) was -0.169. The “glycan array binding signal (z-score)” value (Gal(b1-3)GalNAc) was -0.459, the “glycan array binding signal (z-score)” value [18] was -0.808 and the “glycan array binding signal (z-score)” value [19] was -0.62. The “glycan array binding signal (z-score)” value [20] was 0.216, the “glycan array binding signal (z-score)” value (Gal(b1-3)GlcNAc) was -0.571 and the “glycan array binding signal (z-score)” value [21] was -0.197. The “glycan array binding signal (z-score)” value [22] was -0.664, the “glycan array binding signal (z-score)” value [23] was -0.473 and the “glycan array binding signal (z-score)” value [24] was -0.39. The “glycan array binding signal (z-score)” value [25] was -0.44, the “glycan array binding signal (z-score)” value [26] was 0.122 and the “glycan array binding signal (z-score)” value [27] was 0.257.
